Source: PMC10726135
The list shows a part of the results. At the low end of the ranking the order means little. Measured with an extract: partners may take part in the binding.

molecular target: T1, HNF4alpha8 (COS-7 nuclear extract) (UniProt P41235-5); experiment: protein-binding microarray; conditions: COS-7 nuclear extract on double-stranded Agilent 4x180k PBM; binding buffer, salt, pH and temperature not given; high values mean tight binding; double strand, one strand shown; sequences stand for … in …GCCTAGGGAGATTAGAGTATCGGTCGA
T1 sequence: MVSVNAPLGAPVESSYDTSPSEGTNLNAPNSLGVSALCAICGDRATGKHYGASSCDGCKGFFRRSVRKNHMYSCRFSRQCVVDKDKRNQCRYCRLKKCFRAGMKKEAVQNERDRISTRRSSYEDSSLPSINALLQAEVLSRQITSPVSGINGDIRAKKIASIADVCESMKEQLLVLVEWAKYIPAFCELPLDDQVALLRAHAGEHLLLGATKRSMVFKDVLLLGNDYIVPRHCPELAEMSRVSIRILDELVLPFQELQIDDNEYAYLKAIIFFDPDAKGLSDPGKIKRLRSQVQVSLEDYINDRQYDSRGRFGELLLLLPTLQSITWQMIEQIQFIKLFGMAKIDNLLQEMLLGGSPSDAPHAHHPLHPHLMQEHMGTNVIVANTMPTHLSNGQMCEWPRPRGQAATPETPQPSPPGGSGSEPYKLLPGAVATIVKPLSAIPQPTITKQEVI

Sequence | binding signal (log2 normalized intensity)
GTGGCCATCTTCACGCAATACTAGCAATAA | -1.25
GCCAGATGAAGCTGCAGCCTTAAGAGAGTT | -1.38
AAATCACAGATAAACCCCTGGAGCACAGAA | -0.0397
TTATTTGCGCCTCCCTAGAGCAGCAGTAGG | -1.18
GGTAGATGGGGCCAGATTGAGAAACACATT | -1.25
ATCCTGTCAGACCAAGGCTGCTTAACAAAC | -1.33
TGGGCAGGAGGGATCTGGCAGGGGCGCGGC | -1.34
AATGCGCAGAATTTCTTTTAATGTGTGCTT | 0.136
CTTGGAGACAGTCACTCCCACCCTTCCTGT | 1.6
TTCCTCTTCATATCAGTAAACCCCAATCAG | 3.77
TGCCAGCCCCGAGATAACCCCTCTCCAAGC | 4.43
TTCTTTACCATGTGTTGGCACTTTGGACTT | 6.94
GCCAAGCAGGAGGTCAGAAACAGAAAGTCC | 0.873
TTGAGACCTAGAGGAGAGAGTAAATAATTG | -1.32
TCCTGCCTAACCACCTGACCACAACACACA | -1.31
CCACCTACTGACCAAATGGGAACATTCCTC | -1.41
ATAGAGAAGCCAGGGGTAAGTTTCTAACTA | -1.32
CATCACAATAGGGAAACAGCGAGAGTCCTC | -1.22
TGGTCCTGCTCAAAGGGGAAAGAGGGGGAA | -1.38
TCTGATAAGGAAGATAATGGGTCCGAAGGT | 2.59
ACAGGTTCCCTCATGATTTAGTAAGTTCAA | 1.02
AGGAGGAGATAAGATCAGTATAGTTAGGGC | -1.24
CAGGGTCCAAAGGTGTCAAGAACATAGCCC | 3.57
GCTCTGCGCAGGCGCAGTCCTCTCTCGCGA | -1.34
GAAAAGGCAGCAGCTTGGAATGTCAGGAAC | -1.34

Sequence | binding signal (log2 normalized intensity)
GGTTACACAGTATGTTAATGGCAGAATCAA | -0.325
TGAGTCACTTGGTTTTCACAACCTCCCTTT | 1.07
CAGAGATTGGGACTATCAAATGTGGTGGGT | 0.794
CGTACTTTTCATCTGATCAGTGCCCATCTG | 1.75
AAGATTTCAGTAGCAAACCAATTCGCATAG | -1.24
AAAATATCTGATCGATATCCTAACCATGCC | -1.01
GCCTCCTGGCTGGGCAGGCTCCCTCCCTGG | -1.24
TATTATCTTTTTAATCAATAATCTTTGCCC | 3.6
TGGTCAGTGCATAGCTAAGCACCCAGATAA | -1.26
CTGACCTCTGCCTCGGCCACATTCCCCGAC | 1.27
CAGCAATAGGTCAGAGGACACCCGGGGTGG | -0.977
CCCCTGGCAACACCCCAGTGTGTTGCATGC | 1.71
CAGTGTCATTTACAGAATTTCTCAGATGCC | -0.863
CACTTTGCTCCCTCCTTCAGTGCTCTGTTG | 1.47
GTCAAAAATCTTAAGGAGGAGTGCTAGAGA | -1.3
GGACCTTGCCCTTTAGTTATCTCTTCTTTC | 5.12
AGTGCCCTTCCACTTAGGCTTGCAATGCGG | -1.25
TCGAGGCCTCTTTATCTCCTCCCCTTGAGA | 2.75
AGAGCAAAGATCATCTGGTGGCTTGAGTTG | 0.634
AGAGTCCGGGGCAAACAAGGGCAACTCTAA | -1.3
GGCCGTGAAGCCGTCCTGTCCTGGACTTTC | 4.47
GAAGGAGAGTGACCTCTGCTTGAAGGCATT | 1.78
AGTAGCTCATTTATTATTTGTCTGGGTTAT | 1.56
TGGTGGGTCAAGGTGCAAAGAGATGGGGAG | 1.43
TTTACTCAGAAAGGTCAGCGCTTTGGTAGG | 0.273

Sequence | binding signal (log2 normalized intensity)
CCTACATAGAGAGCAGTCTTGAGCGCAAAT | -1.43
CACAGGGGAAACACAGACTCCAAAGAATGG | -1.36
GTGTTGACCTCTGGACCTCATCTTCCTCCC | 5.2
AGTCTTGGATCGGGATGATCAATGTGTAGT | 1.65
CTTTGAAATGTCCTGAGTGATTGTAGTGTC | 1.86
TGTCCCCAAGATTGAGGCCAGCAAAGGGCA | 2.21
ATCTTTGACCTGGAGCATGACCCTTTGCAG | 3.64
GCGGTCCGCAGCGCTGGTGGCTGCAAGGTT | -0.996
CCCCCCGCCGCATCTACCAGCGTAATTCTG | 2.62
GAGGTGCCAGAAACCTGACTTCCAATTTAC | -1.22
CACCTCTCACCTGGATGTTTTGATGAACTT | 2.12
CAGCTACACAAAGGCAGAGCACTAAATCTC | -1.26
CACCCTTCAGCAAATAGTGGGAGGTGGAAG | -1.13
ATTCACCAGGCAATCAGCCTTAGGTATGCC | -1.29
TATTGTAAAAGAAAGTGAGCAGGCAGTGTC | -0.316
ATGGGCAAAGGACAATAATGAATAAGCACG | -1.08
TTTCCCCTAGTTACAACTGTAAACATCTAA | 0.619
GCCTCTTGACCCCTTGGCCCCGCTGTCCTG | 4.65
TTAAGCAGCAGATAAGGCTAATCCTTACAC | -1.35
ACGTCGCTGCCGCAGATCCCCGCTCCCCTC | 3.7
GTGCAAACTTTTTCCTTTTCTTATCTGTTC | 1.77
CAAAGGCACAGATCATATGGCCCACAAAGC | -1.28
CAGGGGGGCGCCTACGGACGGGTAAGAGTC | -1.3
TTTACCTGCCTGTGCTGTGGCTGCCAAGAC | -1.26
AGGTCCAAGCAGATGCTTTGAAGTGTAAAA | 0.082

Sequence | binding signal (log2 normalized intensity)
TCAAAGGCCAAATTGACACCGTATCATCAA | -1.27
GTGTGGGACTTTGGTCTGCTGAGTCTCATG | 2.52
TCCCCCGCCAGATGTTTTTACCCTGAAGGA | 2.88
GCAAGAGAATCAGAGAGATACTGAACCTTG | 2.85
AGTGCAAGCAAACATACTGCTTATTTAAAT | -1.38
GTATTACCTGCATCTGCCCAGCAGAGCAGT | -1.31
ATAAAGGGCAGGAACATCAGACACAGAGAT | -1.34
CCTGTGCCCACTTTCCTGGGCCGGGGTAGC | 0.114
CCTAGAAAAACAACTAAAGGAATGCGCCTG | -1.03
AAACAGGAAAAAGGGACAAAACTTCAAAGC | -1.25
GTCCTGGGGCGATGCTTCCAAAGTCCACAG | 5.12
ACAGCATTAAGCTGAGGCAGAGTTGTTTGC | -1.15
TGGGGCCCATTACAGACTTTCAACAAGGTG | 1.26
TGTAGGGAAATAAAACAGTCCATTTCAGTG | -0.78
CAGCTGATGAGGCACCAACACTTCCCAATC | -1.25
AGACTTGGGTTCAAAGAGCACATTCCTGCA | 3.84
TCCTGCTGGGCAGAGGGCAGAAGCCTCTCT | -1.26
GGATGCTGAGGTGGGAGGATCGCTTGAGCC | -1.22
CGAGGCCGAGCCTCAGCCGGGAGAGGAGGC | -1.33
AAAGATAGTTGTAGTTACAGCTCATTAATC | -1.34
AACATGTAAATATGACCTTTGCTTTTCAAG | 5.13
AGGCTCCCTCCCTGGGAGGCAGGACCTTGG | 1.21
TTCCCCTGACAAGTATCTCGGTCAAACCTT | 0.843
GAGTAGGTTCTCAGCTGACATTGGTGGAAT | 1.08
CTCCAGCCACCCTGAAGGCTGAGCCTAGGA | -1.33

Sequence | binding signal (log2 normalized intensity)
CTTCAGTCCTTCCCCCGCCAGATGTTTTTA | 4.06
ACCTGAAAGAGCAACTACTCTCTCTTCTGG | -1.26
CCAACGGGCCACGCCCTGCACCCTACGTAA | -1.1
TGCGCCTCCCTAGAGCAGCAGTAGGCTCTC | -1.32
AGGACAAAGTCCAAGGAAGGGCAAACTCTA | 3.82
GGATCTGGCAGGGGCGCGGCCTAATGCCTG | -1.42
TTCATTGCTTTGAGCATGAGAGTTCATTGC | 1.47
CTCCAAGGTGTCCAGCTTAGAGTGGACACA | 1.16
GTAGTGATCCTGGTAGGGGGGTGTTATCTC | 0.56
TGGAAATGCAAACACCTACATTCAAATCCT | -1.37
GACCATCACCACTTCAAGCTTGGTATGCTT | -0.696
TCTTTTGATAACTGATCTCTGGCTTGATCC | 1.43
CGCGAGCACCGCGCGCGCAAAGCGGGGGCG | -1.38
TCTGTCTGAGACCACTTAAGCCTGGAATTC | -0.0786
TTAACCTTTGCTCTCTGAAATGAAGGTCAG | 4.25
GGAAGGCAAAGTTCAACCCTGAATGTGTGC | 2.73
GGAGCTCGGCGCCAGGAAGCAATGGCCCTC | -1.11
AGTGTAAATATTTGAGGACACAAAGTGGAC | 2.34
GTCAAAACTTTGTTTGAGTTCCAAAGTCCA | 7.18
GGTCTCTCACCTGGCTTCCCTTTGATCTTT | 3.84
GCGCTCCCTGTTTAGAATTCTGCCTCCCCC | 5.07
ATTTAAGACGAGTGGTTTGAGGTCACATAG | 2.17
TCAGGAGCCCCACAGAGCAAAGGTCATGCA | 6.34
GAGAAAATTCTAGATAACTCCAAGATTAGT | -1.41
GCTCCTGGGCCCAGATATACAAGAAAGAAA | -0.933

Sequence | binding signal (log2 normalized intensity)
TGCCTGCCCTCTCCATGCAGACAGTCCCTC | 0.215
AAGTAGACAGATCAGAGAGATTTTCACATG | -0.892
CGCTTGGCTCAGGCCGGTTGGCCAGGTTCC | -1.14
CTGGCCTGTTTGATCTGGTTTTTGTTGTTG | 2.25
ACTCCCACCAGCATGGTGATGCTAGCTACT | -1.35
CCTCTGCAACCTTTGCTCTCCCTCCTCTCT | 3.82
CAGCTGCAGTGAAATTCTGGCCAACCAGCA | -1.24
GGGACTAGCCTTATCTCAGATGAGACTTTG | 2.03
AAGTTCATTGTAGCCTCAAATTCCTGGGCT | -1.28
AACCATAATGAAATACCACTGCACACATAA | -1.28
AATAAAGTGGCAACCCTTGACCCCAGTAAC | 5.23
ATAACGTTACAGTGGAGAAACCTGACAGAC | -1.3
CCCAAGGAGAGGAGGGAACAGCAAGACTTT | -1.44
GCTGCTGGGAGGTAGCTCAAAGTCTAACCC | 3.7
GGAAAAAAAAACCACTGTGTCACGCACGGT | -1.17
TCAAAGGAGGCATTCCTGCAATCAGAGCTG | -1.29
TTCAAAGGGCAAAAGGGCAAAACTGTCACA | 4.26
CATGGGAGATAGAGCAGTGGAAGACAAATG | -1.31
GAAGGCCTGTTAAAAACACGAGCTATTGCG | -1.33
TGAGGTGGCTGCAGAGTGGGAGGCCAAGAG | -1.29
